This is an account of results in PubChem BioAssay AID1347073 (National Center for Advancing Translational Sciences (NCATS), 2019).

Structures are written as SMILES. Out of some 45,000 compounds screened, about 200 (0.44%) were called active. Another 7% or so got no clear call; they are omitted. Calls come from the whole dose curve; as a rule, active = well fitted activation curve with a large enough effect; inconclusive = small, poorly fitted or top-dose-only effect; inactive = no such curve, though single readings can be large or run the other way. The list shows a part of the results.

The nature of this experiment: qHTS of TDP-43 Inhibitors: NCGC Sytravon Library Screen. Note: 0% is about no effect; nearly all actives have a fitted effect of over 55% in size. The settings on record: yeast TDP-43 toxicity rescue, BacTiter-Glo growth, 24 h; series mostly up to 46.1 µM; growth rescue (activation): at the top concentration. The method, boiled down: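 TDP-43-expressing yeast, pregrown in raffinose, seeded at OD600 0.02 in galactose medium with compound for 24 hr at 30 deg C. Growth read by BacTiter-Glo luminescence, so rescue of toxicity appears as activation.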
Turning to `Cc1cccc(C)c1NC(=O)CN1CCN(C(=O)c2ccc(OCc3cn4ccccc4n3)cc2)CC1`, the “growth rescue (activation)” value was inactive: 11.9%.
With `COc1cc([N+](=O)[O-])ccc1NC(=S)NC(=O)CC(C)(C)C`, the “growth rescue (activation)” value is inactive: -0.761%.
The value for `CCOC(=O)C1(Cc2ccccc2)CCCN(C2CCCC2)C1` (stereo not drawn) was inactive: -4.12%; that for `CCOC(=O)Cn1c(C)c(Br)c(COC)c(C#N)c1=O` was inactive: 10.8%; that for `O=C1C2CC=CCC2C(=O)N1c1ccc(NCCc2cccc(F)c2)c([N+](=O)[O-])c1` (stereo not drawn) was inactive: -7.74%.
In the case of `O=C(Nc1ccccc1C(=O)O)c1ccc2c(c1)C(=O)N(c1cccc([N+](=O)[O-])c1)C2=O`, the “growth rescue (activation)” value is inactive: 1.94%.
With `COc1cc(OC)cc(N(C(=O)c2ccco2)C(C(=O)NC2CCCC2)c2ccc(N(C)C)cc2)c1` (stereo not drawn), the “growth rescue (activation)” value is inactive: 9.86%.
Turning to `C=CCSC1=NN2CCS(=O)(=O)N=C2S1`, the “growth rescue (activation)” value is inactive: -11.1%.
On to `Cc1cc(C)c(NC(=S)NCC2CCN(C(C)c3ccccc3)C2)c(C)c1` (stereo not drawn), for which the “growth rescue (activation)” value was inactive: 1.47%.
On to `COc1ccc(S(=O)(=O)NCCC(=O)OCc2cc(=O)oc3cc(C)ccc23)cc1[N+](=O)[O-]`, for which the “growth rescue (activation)” value is inactive: -22.3%.
For the molecule `OC(COc1ccccc1)CN1CCN(Cc2ccc3c(c2)OCO3)CC1` (stereo not drawn), the “growth rescue (activation)” value is inactive: 10.4%.
Consider `O=S(=O)(c1ccccc1)c1nc(Cc2ccccc2)oc1N1CCOCC1`, for which the “growth rescue (activation)” value was inactive: -11%.
The result for `Cc1cccc(C)c1NC(=O)c1sc(N)nc1-c1ccccc1` reads inactive: 3.61%; that for `CCOC(=O)CN1C(=O)/C(=C/c2c(F)cccc2Cl)Oc2ccccc21`, inactive: -9.65%; that for `COc1ccc(CCNC(=O)c2ccc(S(=O)(=O)N(C)c3ccccc3)cc2)cc1OC`, inactive: 15%.
The value for `CN(CC(=O)NCc1cccnc1)S(=O)(=O)c1ccc(F)cc1` was inactive: -6.52%; that for `CCN(CC)S(=O)(=O)c1ccc(Cl)c(NC(=O)CCCCl)c1` was inactive: 5.98%; that for `CCC(=O)NC(=S)Nc1ccccc1C(=O)OC` was inactive: 26.6%.
The result for `CC(NC(=O)CCNS(=O)(=O)c1cccc2nsnc12)c1ccccc1` (stereo not drawn) reads inactive: 5.13%.
With `COc1cc(Cl)c(C)cc1NC(=O)c1ccccc1-n1cnnn1`, the “growth rescue (activation)” value was inactive: 11.1%.
`O=C(CN1C(=O)NC2(CCCCCCC2)C1=O)NC1CCCc2ccccc21` (stereo not drawn): the “growth rescue (activation)” value was inactive: -10.2%.
`N#C/C(C(=O)Oc1ccccc1)=C1/Nc2ccccc2-c2ccccc21`: the “growth rescue (activation)” value was inactive: 28.9%.
The result for `O=C(N/N=C/c1ccco1)c1ccccc1OCc1ccc(Br)cc1` reads inactive: 20.4%; that for `Cc1c(C(=S)Nc2ccccc2)cnn1-c1ccc([N+](=O)[O-])cc1`, inactive: 24.8%.
With `CC(=O)Nc1ccc(S(=O)(=O)Nc2nc3cc4c(cc3nc2Cl)OCCO4)cc1`, the “growth rescue (activation)” value was inactive: 24.3%.
In the case of `CCNS(=O)(=O)c1ccc(OC)c(C(=O)NC2CCCCC2)c1`, the “growth rescue (activation)” value was inactive: -0.198%.
As for `COc1cc(/C=N/NC(=O)CCN2CCN(C)CC2)cc2c1OCO2`, the “growth rescue (activation)” value was inactive: -29%.
For the molecule `O=C(CSc1nc2cc(Cl)ccc2s1)Nc1cccc(S(=O)(=O)N2CCOCC2)c1`, the “growth rescue (activation)” value was inactive: 14.8%.
As for `COc1ccc(C(O)(CCN2CCOCC2)c2ccccc2)cc1` (stereo not drawn), the “growth rescue (activation)” value was inactive: 3.99%.
Turning to `Cc1noc(C)c1CS(=O)(=O)Cc1ccc(Cl)cc1`, the “growth rescue (activation)” value was inactive: 10%.
`CCOc1cc(CNCCc2ccccc2)ccc1OCC(=O)NC(C)(C)C`: the “growth rescue (activation)” value is inactive: 6.41%.
With `CCc1nc2ccc(C(=O)Nc3cc(-c4ccccc4)ccc3OC)cn2c1N(C)CCC(C)C`, the “growth rescue (activation)” value was inactive: -35.4%.
In the case of `COc1ccc(OC)c(/C=C2\SC(=S)N(N3CCOCC3)C2=O)c1`, the “growth rescue (activation)” value is inactive: -12.3%.
As for `CC(C)(C)N(Cc1ccccc1)C(=O)CN1C(=O)c2ccccc2S1(=O)=O`, the “growth rescue (activation)” value was inactive: 18.8%.
On to `CC(C)CC(NC(N)=O)C(=O)NCc1ccccc1Cl` (stereo not drawn), for which the “growth rescue (activation)” value is inactive: 7.89%.
Consider `Cc1ccc(S(=O)(=O)NN2C(=O)c3ccccc3NC2(C)C)cc1`, for which the “growth rescue (activation)” value is inactive: -3.11%.
Turning to `CNc1c(NS(=O)(=O)c2ccc(OC)cc2)c(=O)oc2ccccc12`, the “growth rescue (activation)” value was inactive: -5.83%.
With `Cc1cc(C)cc(NC(=O)/C(C#N)=C/c2cn(CC(=O)NCc3ccco3)c3ccccc23)c1`, the “growth rescue (activation)” value is inactive: -1.99%.
With `COc1ccc(S(=O)(=O)N(C)C)cc1NC(=O)CCCSc1ccccc1`, the “growth rescue (activation)” value was inactive: -11.3%.
Turning to `CCC1CCCCN1S(=O)(=O)c1ccc(NC(=O)c2cccnc2)cc1` (stereo not drawn), the “growth rescue (activation)” value was inactive: -1.1%.
On to `CC(=O)[C@@]1(O)CCC2C3CC[C@H]4C[C@@H](O)CC[C@]4(C)C3CC[C@@]21C` (stereo partly drawn), for which the “growth rescue (activation)” value is inactive: 10.5%.
`COc1ccc(OC)c(NC(=O)c2ccc3c(c2)C(=O)N(CC2CCCO2)C3=O)c1` (stereo not drawn): the “growth rescue (activation)” value is inactive: -2.55%.
Take `COC(=O)c1ccccc1N(C)S(=O)(=O)c1cc2c(cc1C)OCC(=O)N2`: the “growth rescue (activation)” value is inactive: 8.44%.
Take `COc1cc(C#N)ccc1OC(=O)Cc1cc(OC)c(OC)c(OC)c1`: the “growth rescue (activation)” value is inactive: 12.4%.
With `COc1ccc(C(CC(=O)c2ccccc2)S(=O)(=O)c2ccccc2)cc1` (stereo not drawn), the “growth rescue (activation)” value is inactive: -7.27%.
For the molecule `Cc1cc(C)cc(OCc2nnc(SCC(=O)NC3CC3)n2C)c1`, the “growth rescue (activation)” value was inactive: 4.01%.
The value for `CCOc1ccccc1N=Nc1c(C)[nH]n(C(N)=S)c1=O` was inactive: 15.6%.
For `CNC(=S)Nc1ccc(Br)cc1`, the “growth rescue (activation)” value is inactive: 28.8%.
The value for `Cc1ccc(S(=O)(=O)N2CCN(C(=O)C(C)Cn3cncn3)CC2)cc1C` (stereo not drawn) was inactive: 6.95%.
As for `CC1=C(C(=O)N2CCOCC2)C(c2cc(C)ccc2C)NC(=S)N1` (stereo not drawn), the “growth rescue (activation)” value is inactive: 9.5%.
Turning to `Cc1ccc(S(=O)(=O)Nc2ccccc2C(=O)NCc2cccnc2)cc1`, the “growth rescue (activation)” value is inactive: 0.906%.
For `O=C(Nc1cccnc1)c1ccc(Cl)c(S(=O)(=O)N2CCOCC2)c1`, the “growth rescue (activation)” value is inactive: 8.52%.
Regarding `CCCc1n(CC(O)COCc2ccccc2)c2ccccc2[n+]1C` (stereo not drawn), the “growth rescue (activation)” value was inactive: 7.33%.
